Assay results published in paper PMC4336329 (PLoS ONE, 2015).
The campaign covered roughly 310,000 compounds. About 2,200 (0.71%) showed an effect of 50% or more. The effect is printed as a negative number. This is one part of the list.

What follows are compounds tested against human ether-à-go-go-related gene (hERG) potassium channel (human, UniProt Q12809) (assay: primary screen, population patch clamp on CHO cells stably expressing hERG).
Sequence of human ether-à-go-go-related gene (hERG) potassium channel (Q12809 whole entry, looked up): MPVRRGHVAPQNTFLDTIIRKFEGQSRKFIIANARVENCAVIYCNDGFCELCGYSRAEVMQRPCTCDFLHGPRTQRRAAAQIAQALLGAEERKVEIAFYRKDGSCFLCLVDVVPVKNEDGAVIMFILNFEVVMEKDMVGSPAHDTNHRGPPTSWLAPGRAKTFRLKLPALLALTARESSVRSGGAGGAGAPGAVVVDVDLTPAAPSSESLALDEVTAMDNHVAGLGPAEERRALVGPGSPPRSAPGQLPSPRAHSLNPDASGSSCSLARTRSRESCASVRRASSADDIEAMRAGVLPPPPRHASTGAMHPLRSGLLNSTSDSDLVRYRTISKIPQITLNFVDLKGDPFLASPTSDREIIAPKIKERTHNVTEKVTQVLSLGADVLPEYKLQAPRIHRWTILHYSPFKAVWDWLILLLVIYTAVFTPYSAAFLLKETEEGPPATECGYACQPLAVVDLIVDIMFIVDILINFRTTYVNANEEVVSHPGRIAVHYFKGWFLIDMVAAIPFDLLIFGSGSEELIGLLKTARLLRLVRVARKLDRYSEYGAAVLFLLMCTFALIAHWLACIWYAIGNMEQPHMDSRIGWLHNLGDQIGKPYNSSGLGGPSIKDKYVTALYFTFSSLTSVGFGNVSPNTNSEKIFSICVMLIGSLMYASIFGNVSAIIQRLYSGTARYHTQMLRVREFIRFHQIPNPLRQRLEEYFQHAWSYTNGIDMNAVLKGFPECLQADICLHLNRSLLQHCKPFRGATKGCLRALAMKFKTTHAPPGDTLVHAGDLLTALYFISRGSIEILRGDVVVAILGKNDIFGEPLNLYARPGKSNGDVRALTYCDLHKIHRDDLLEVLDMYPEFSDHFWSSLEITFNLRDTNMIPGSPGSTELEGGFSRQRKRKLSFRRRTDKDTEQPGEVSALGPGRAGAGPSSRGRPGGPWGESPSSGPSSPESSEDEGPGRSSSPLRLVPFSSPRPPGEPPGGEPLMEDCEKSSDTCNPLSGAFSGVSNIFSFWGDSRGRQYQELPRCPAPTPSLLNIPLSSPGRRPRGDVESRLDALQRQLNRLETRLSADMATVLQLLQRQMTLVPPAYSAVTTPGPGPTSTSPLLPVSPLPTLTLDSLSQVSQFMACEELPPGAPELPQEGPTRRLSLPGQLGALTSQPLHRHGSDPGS

Question: How did the “hERG current change (%, negative = inhibition) at 1uM” value turn out when `CCN(CC(=O)NCc1cccs1)C(=O)c1ccccc1Cl` was run?
Answer: 1.38%

Question: With `O=C(NCCCNc1ccc(C(F)(F)F)cc1[N+](=O)[O-])c1ccc(F)cc1` as the compound, how does the “hERG current change (%, negative = inhibition) at 1uM” value read?
Answer: 0.812%

Question: How did the “hERG current change (%, negative = inhibition) at 1uM” value turn out when `O=C1CSC(=Nc2cccc(Cl)c2Cl)N1Cc1cccnc1` was run?
Answer: 1.66%

Question: With `CC(C)CNC(=O)CN1C(=O)NC2(CCCc3ccccc32)C1=O` (stereo not shown) as the compound, how does the “hERG current change (%, negative = inhibition) at 1uM” value read?
Answer: 9.2%

Question: How did the “hERG current change (%, negative = inhibition) at 1uM” value turn out when `O=c1c2cn[nH]c2[nH]c(=S)n1-c1ccccc1` was run?
Answer: 14.3%

Question: For `COC(=O)CC(C(=O)Nc1cc(C(=O)OC)cc(C(=O)OC)c1)N1CCN(C)CC1` (stereo not shown), which “hERG current change (%, negative = inhibition) at 1uM” value is on record?
Answer: 17.1%

Question: `COc1ccc(S(=O)(=O)N(C)C(C)CCc2ccco2)cc1` (stereo not shown) was tested. Which “hERG current change (%, negative = inhibition) at 1uM” value did it give?
Answer: 5.09%

Question: `COc1ccc(C(O)Cn2c(=N)n(CCCN(C)C)c3ccccc32)cc1.Cl` (stereo not shown) was tested. Which “hERG current change (%, negative = inhibition) at 1uM” value did it give?
Answer: 2.15%

Question: `COc1cccc(OC)c1C(=O)Nc1cc(Cl)ccc1N1CCOCC1` was tested. Which “hERG current change (%, negative = inhibition) at 1uM” value did it give?
Answer: 2.33%

Question: With `O=C1C=C(c2cc3ccccc3o2)C[C@@H](c2ccc(F)cc2)C1` as the compound, how does the “hERG current change (%, negative = inhibition) at 1uM” value read?
Answer: 5.22%

Question: Which “hERG current change (%, negative = inhibition) at 1uM” value does the source give for `O=C(Nc1ccc2c(c1)OCCO2)c1cccc2nc3ccccc3nc12` here?
Answer: 14.7%

Question: For `CCc1noc(C)c1C(=O)NNC(=O)COc1ccc(C)cc1`, which “hERG current change (%, negative = inhibition) at 1uM” value is on record?
Answer: 9.88%

Question: With `COCCN(C(=O)CCC(=O)Nc1ccccn1)C(C(=O)NC(C)(C)C)c1ccc(OC)cc1` (stereo not shown) as the compound, how does the “hERG current change (%, negative = inhibition) at 1uM” value read?
Answer: 16.5%

Question: For `O=C(CSc1nc(C2CCCCC2)nc2ccccc12)N1CCCC1`, which “hERG current change (%, negative = inhibition) at 1uM” value is on record?
Answer: 5.28%

Question: With `COc1cc(/C=N/N=C2\CC3CCC2(C)C3(C)C)ccc1O` (stereo not shown) as the compound, how does the “hERG current change (%, negative = inhibition) at 1uM” value read?
Answer: 11.7%

Question: For `CCCn1c(C)cc(/C=C(\C#N)C(=O)OCC(=O)Nc2cc(OC)c(OC)c(OC)c2)c1C`, which “hERG current change (%, negative = inhibition) at 1uM” value is on record?
Answer: 3.06%

Question: How did the “hERG current change (%, negative = inhibition) at 1uM” value turn out when `CCOC(=O)CNC(=O)Cn1c(C)cc2ccccc2c1=O` was run?
Answer: 20.1%

Question: With `Cc1ccc(N(C)C(=O)Oc2ccc(C(=O)c3ccc(Cl)cc3)cc2)cc1` as the compound, how does the “hERG current change (%, negative = inhibition) at 1uM” value read?
Answer: 9.2%

Question: Which “hERG current change (%, negative = inhibition) at 1uM” value does the source give for `COc1cc(OC)nc(Oc2ccc(N)c(C)c2)n1` here?
Answer: 5.07%

Question: `CC(=O)N1CSCC1C(=O)NNS(=O)(=O)c1cccc(C(F)(F)F)c1` (stereo not shown) was tested. Which “hERG current change (%, negative = inhibition) at 1uM” value did it give?
Answer: 11.9%

Question: For `C=CCNC(=O)c1c(CSc2ccc(Cl)cc2)noc1C(=O)NCCC`, which “hERG current change (%, negative = inhibition) at 1uM” value is on record?
Answer: 3.31%

Question: `Cc1ccc(-c2nn(-c3ccccn3)c(=O)c3ccccc23)cc1C` was tested. Which “hERG current change (%, negative = inhibition) at 1uM” value did it give?
Answer: 5.79%

Question: For `COc1ccc(-c2c(C)n([O-])c3c([n+]2=O)CCC3)cc1OC`, which “hERG current change (%, negative = inhibition) at 1uM” value is on record?
Answer: 9.66%

Question: For `CCn1c(Oc2ccccc2)nc2c1c(=O)n(C)c(=O)n2C`, which “hERG current change (%, negative = inhibition) at 1uM” value is on record?
Answer: 11.7%

Question: Which “hERG current change (%, negative = inhibition) at 1uM” value does the source give for `COc1ccc(C(=O)NNC(=O)Cc2nc3nc(C)cc(C)n3n2)cc1` here?
Answer: 13.9%

Question: `Cc1cc(Br)ccc1NS(=O)(=O)c1c(C)[nH]c(=O)[nH]c1=O` was tested. Which “hERG current change (%, negative = inhibition) at 1uM” value did it give?
Answer: 11.5%

Question: For `O=C(COc1ccccc1)N1CCNC1=O`, which “hERG current change (%, negative = inhibition) at 1uM” value is on record?
Answer: 5.99%

Question: For `COc1ccc(S(=O)(=O)N2CCOCC2)cc1C(=O)Nc1nc2ccccc2s1`, which “hERG current change (%, negative = inhibition) at 1uM” value is on record?
Answer: 3.58%

Question: For `Cc1ccc(-c2csc(NC(=S)NC(=O)c3cc4ccccc4o3)n2)cc1`, which “hERG current change (%, negative = inhibition) at 1uM” value is on record?
Answer: 7.36%

Question: Which “hERG current change (%, negative = inhibition) at 1uM” value does the source give for `Clc1ccc(OCCn2ccnc2)c(Br)c1` here?
Answer: 7.74%

Question: How did the “hERG current change (%, negative = inhibition) at 1uM” value turn out when `Cc1cc(C)nc(NC(=O)c2cccc([N+](=O)[O-])c2C)n1` was run?
Answer: -21.2%

Question: For `O=C(c1ccc([N+](=O)[O-])cc1)N1CCN=C1SCc1ccccc1`, which “hERG current change (%, negative = inhibition) at 1uM” value is on record?
Answer: -6.39%

Question: How did the “hERG current change (%, negative = inhibition) at 1uM” value turn out when `CC(C)c1ccc(NC(=O)CC2Oc3ccccc3NC2=O)cc1` (stereo not shown) was run?
Answer: 10.7%

Question: For `COc1ccc(C(c2nnnn2Cc2cccs2)N2CCN(c3ccc(F)cc3)CC2)cc1OC` (stereo not shown), which “hERG current change (%, negative = inhibition) at 1uM” value is on record?
Answer: -19.5%

Question: How did the “hERG current change (%, negative = inhibition) at 1uM” value turn out when `COc1ccc(Cl)cc1NC(=O)N1CCN(c2ccccc2OC)CC1` was run?
Answer: 5.02%

Question: With `CC(C)(C)CC(C)(C)c1ccc(OCC(=O)N/N=C/c2ccc(S(=O)(=O)[O-])o2)cc1` as the compound, how does the “hERG current change (%, negative = inhibition) at 1uM” value read?
Answer: 11.4%

Question: `COc1cc2ncnc(NCc3ccccc3Cl)c2cc1OC` was tested. Which “hERG current change (%, negative = inhibition) at 1uM” value did it give?
Answer: 6.63%

Question: For `COc1ccccc1CNC(=O)COc1ccc2c(c1)CCC2`, which “hERG current change (%, negative = inhibition) at 1uM” value is on record?
Answer: 15%

Question: How did the “hERG current change (%, negative = inhibition) at 1uM” value turn out when `Cc1ccc(SCC(=O)OCC(=O)NCc2ccco2)cc1` was run?
Answer: 1.59%

Question: Which “hERG current change (%, negative = inhibition) at 1uM” value does the source give for `Cc1n[nH]c(C)c1CCCCOc1ccccc1` here?
Answer: 3.72%

Question: Which “hERG current change (%, negative = inhibition) at 1uM” value does the source give for `COc1cc(/C=N/N2CCN(c3ccccc3)CC2)cc(OC)c1OC(C)=O` here?
Answer: 2.2%

Question: `CN(C)c1cc(-c2ccc(F)cc2)oc(=O)c1Cl` was tested. Which “hERG current change (%, negative = inhibition) at 1uM” value did it give?
Answer: 7.03%

Question: For `CC1CCCCN1S(=O)(=O)c1cccc(S(=O)(=O)N2CCOCC2)c1` (stereo not shown), which “hERG current change (%, negative = inhibition) at 1uM” value is on record?
Answer: 1.3%

Question: Which “hERG current change (%, negative = inhibition) at 1uM” value does the source give for `CCS(=O)(=O)N1CCC(NC(C)=O)(c2ccccc2)CC1` here?
Answer: 11.5%

Question: With `COc1cc(OC)nc(NC(=O)COC(=O)c2cccc(Cl)c2)n1` as the compound, how does the “hERG current change (%, negative = inhibition) at 1uM” value read?
Answer: 0.488%

Question: With `c1ccc2c(c1)[nH]c1c(N3CCC4(CC3)OCCO4)ncnc12` as the compound, how does the “hERG current change (%, negative = inhibition) at 1uM” value read?
Answer: -5.34%

Question: Which “hERG current change (%, negative = inhibition) at 1uM” value does the source give for `COc1ccc(S(=O)(=O)N2CCN(C(=O)Cc3cccs3)CC2)cc1` here?
Answer: 1.32%

Question: Which “hERG current change (%, negative = inhibition) at 1uM” value does the source give for `O=C(Nc1ccncc1)c1cc2ccccc2cc1O` here?
Answer: 8.27%

Question: With `CCOC(=O)c1sc(C)c2c(=O)n(CC(=O)c3ccc(Br)cc3)nnc12` as the compound, how does the “hERG current change (%, negative = inhibition) at 1uM” value read?
Answer: 7.69%

Question: With `CC(C)Sc1nnc([C@H](Cc2ccccc2)NC(=O)OC(C)(C)C)o1` as the compound, how does the “hERG current change (%, negative = inhibition) at 1uM” value read?
Answer: 7.44%

Question: With `Cn1c(-c2cnn(-c3ccccc3)c2-n2cccc2)n[nH]c1=S` as the compound, how does the “hERG current change (%, negative = inhibition) at 1uM” value read?
Answer: 17%

Question: `CC1CC(C)CN(CCCNC(=O)c2nn(C)c3c2CS(=O)(=O)c2ccccc2-3)C1` (stereo not shown) was tested. Which “hERG current change (%, negative = inhibition) at 1uM” value did it give?
Answer: -26.2%

Question: With `C/C(=N\NC(=O)Cc1ccccc1)c1cccnc1` as the compound, how does the “hERG current change (%, negative = inhibition) at 1uM” value read?
Answer: 12.7%

Question: With `O=C1CCc2cc(S(=O)(=O)NCCC(=O)NC3CCN(Cc4ccccc4)CC3)ccc2N1` as the compound, how does the “hERG current change (%, negative = inhibition) at 1uM” value read?
Answer: 3.12%

Question: How did the “hERG current change (%, negative = inhibition) at 1uM” value turn out when `Cc1sc(NC(=O)c2ccc3ncsc3c2)c(C(N)=O)c1C` was run?
Answer: 12%

Question: How did the “hERG current change (%, negative = inhibition) at 1uM” value turn out when `C/C(CC(=O)Nc1ccccc1Br)=N\NC(=O)C(=O)N1CCCC1` was run?
Answer: 11.1%

Question: How did the “hERG current change (%, negative = inhibition) at 1uM” value turn out when `CCN(CC)CCCNC(=O)C1CCCN(c2nnc(N3CCCC3=O)s2)C1` (stereo not shown) was run?
Answer: 1.83%

Question: For `COc1ccc(C(=O)C2CCCN(C3Cc4ccccc4C3)C2)c(OC)c1` (stereo not shown), which “hERG current change (%, negative = inhibition) at 1uM” value is on record?
Answer: -68.2%
